From the supplement of paper PMC10126150
Values marked as one replicate rest on one cluster of the flow cell; about a third of the high ones do not repeat.

Test system: ATP
Assay: switch fluorescence ratio, 500 uM ATP over buffer (Cy3 cluster intensity, sum of 5 cycles each) (fold (ratio)); higher = stronger signal-on switching upon ATP binding; sequences stand for … in TCGTCGGCAGCGTCAGATGTGTATAAGAGACAGTTTTTTTTTTTTTTTTTTTTTTTTT…TC
Details: aptamer strand: ATP DNA aptamer (quencher-CACCTGGGGGAGTATTGCGGAGGAAGG + anchor), 100 nM annealed; ATP concentration: 500 uM; one replicate
Method in brief: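 Exposure to 500 uM ATP lasted 15 min at 22 °C before imaging, and a selection-buffer image was taken beforehand, for Cy3-labelled switching-strand clusters on a modified Illumina MiSeq flow-cell annealed to 100 nM quencher-labelled ATP aptamer. Five buffer/ATP cycles were run with NaOH stripping and re-annealing between them. The fluorescence ratio per cluster is summed target-cycle over summed buffer-cycle Cy3 intensity, averaged per switch-domain sequence. Clusters outside 100-1000 RFU were excluded.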

Sequence	switch fluorescence ratio
CCTTGGCTTA	1.5
AGTTCCGCTA	2.17
GGCGCCTCGC	0.986
AGTGGAACCC	0.997
GGGGACTGTG	1.01
AAATTAGGCT	1.01
TACTTGCAGG	1.03
GAGGGTATTC	0.936
ACCAATTGTA	1.01
TATAGGTCTC	0.982
GGTAGATTTA	0.978
AGACTGTGC	1
GGCTTAACTA	0.992
CATACGTAGG	1.07
CTGGGCTTGG	0.932
GGTAATGGTT	0.982
GCAGGATGGA	1.04
AGCTGCTAAG	0.985
GGCGATTATT	1.01
TATCCTCGAG	0.99
GAGAAAGTAC	1.29
GGGGCAGCT	0.971
TGTAGGGCCC	0.956
TTCGTCATAG	1.02
TCCTTTATTA	0.963
ACGCTAATCA	1.18

Sequence	switch fluorescence ratio
TGGATCAATC	1.01
ACTTATACGG	1.13
GGTAGTGGTT	0.981
GGGATAAATC	1.01
TCAGTGAGCA	1.01
TCGAGGAGGG	0.962
TTAACCGGTC	1.05
GAAAAGTTCA	1.01
TGTAATGCTG	0.918
TGTTAATG	0.991
GATGTCGCGA	1.04
TAGTATGCGC	0.952
GACAGAAGAG	0.951
GTTACTATTA	1.03
GATATGTCGG	1.01
AATATTCGTA	1.01
CGTTGCATTC	1.37
CGTGACAGCG	0.978
ATATAGGTAA	0.961
AGGTCCCATG	1.01
TTCCCCTCT	1.1
CACGGCTTGA	0.935
ACCTTCATTG	1.36
GGGGATAGCC	1
AGGCTCTCAA	1.07
TTGGCACGTT	0.996

Sequence	switch fluorescence ratio
AATGGACGAC	1.09
ACGTAGCTT	2.03
AAGGCCGAAA	1.06
TTTTCCTAG	1.02
GCACTAGATA	1.03
CATTGGTAGC	0.997
CTAAGTGATC	1.13
CATTAGGGCC	1.02
TTTTCATGCT	1.05
ACAAAAGCCA	0.995
TGCCACATAA	1.07
ACGAGCACGA	1.27
TCACGCCGTT	0.984
ACCGCATAGA	1.21
TTGGGTGGG	0.975
ATGGGGTTG	0.944
TTACGGAAAG	1.03
TGGGTAAGTC	1.02
GGATCGATTT	1.03
TGGGGACTCG	0.961
AAAATGGGAG	1.17
GAGCCAGCCA	1.01
TTTTACGGCG	1.05
GTGCGCACCA	0.996
ACAGTAAGCT	1.01
GCAGTTTGTA	0.993

Sequence	switch fluorescence ratio
GCGCTGCCCC	1.21
ATTATAGTGT	0.975
CAGTTACTG	1.04
ATCAATGGAG	1.04
TCGAGATTGG	1.01
CCGGGTTAA	1.06
ACTGGGAAGC	1.03
AGGTCATTTG	1.02
ACCTGCCGCC	2.03
CGCTATGAAA	0.937
AGTGAAGTGG	1.03
AAAAAGAAA	1.02
TAAAGGGCG	1.01
AACTTTCAAA	1.01
TCTTGCTCCC	1.81
GGTCCATTT	1.01
GCCTACAAAG	0.973
AATCGCAGAG	1.02
AGTTACCAAG	1.05
TTTTAAGGT	0.947
TGGGTCAGGC	1.01
GCAGTTACGA	1.41
ATTGGGAGT	1.01
ACTAACTATT	1.08
CGGTTAATGC	1.45
CTGTATGTTG	0.899

Sequence	switch fluorescence ratio
TTGGGCGTCA	1.02
GATTACTAAG	0.981
CAGCATCGGA	0.999
CTTTTGAAAG	0.955
AAGGATCGGG	0.993
CTTAGCAATT	2.33
CGCAGATTAT	1.04
TTTGCTTGTG	0.994
AATTGATATG	0.987
GTGGGAGCG	0.981
ACAGCTTAGA	1.01
TGCCTAATCA	0.957
ACGAACGTTT	1.07
CTGTATGGCT	0.968
AACGATATAT	1.11
GAGCGTTGGG	0.988
CCCAAAAATT	1.06
CTGTGTATAC	1.24
AGTCCGGGTG	3.39
GTGGCAATTG	0.939
GATTTACCCT	1.21
TCAGAATCCT	1.07
AAATCCCAGC	0.999
GGAGGTGACT	0.948
TGTGAAGTAC	1.31
GGAGCACAGG	1.29

Sequence	switch fluorescence ratio
ACATGAAGCT	0.932
ATTTTGTGA	1.01
CTATATAGGC	1.03
AGGGGATATC	1.2
TACCCGGATT	1.03
CGTCAGGTTT	3.66
TTTGCACGGC	1
ATAACGATTA	1.04
CCAAGTATCG	0.982
TGAGTTCGAT	0.98
TGAGAACCGT	1.01
CCCGGGGTAA	0.997
TAATCTTGAA	0.985
CCTATGGTAC	3.59
TCTGTGTGTC	1.02
AAGTCGATG	0.979
GGTTGGGCAG	0.963
GGAGAATCG	1.01
GACGCCCGAG	1.02
AGTATGATTC	1.04
TGACGGGTAA	1.04
TTCGCATTCG	1.55
CGATTGGGCG	1.05
AACATGATCA	1
GACCGGG	0.951
ACTGTGTGCT	0.994

Sequence	switch fluorescence ratio
CATTTCTCTG	1.08
TTGCCAAATA	0.966
CGTGCTGCTG	0.908
AAATAGGAGT	1.03
AGTAGGATT	1.01
TCCGAAATAC	1.5
GGTGGTTAG	0.98
GATGCTGAAG	0.982
TACGTTCGAA	0.975
AAAAGATTCA	1.14
CCGTGAATGT	1.23
TAGAGAACGG	0.995
TGAATCTGAC	1.17
TTGAGAGTAG	0.955
ACTAAAAGAG	0.997
CGGGGCTGTT	1.04
TTTGCTGTGT	1.03
CGAAAAGGGC	1.03
GAATTATGAC	1.03
TATGCCCACT	0.984
TTTCAATATG	0.987
TGCCAATATT	1.06
GATCCCACGC	1.17
TTAGTATCCC	1.04
TGGTTTACGT	0.95
AGTCTCAATA	1.01

Sequence	switch fluorescence ratio
ATGCGCAAGA	1.22
GGTGGAAGT	1.01
CCAACTTAAG	0.946
GAGGAAGTGT	0.958
ACAGGTTCTC	0.984
TAAATATTCA	1.06
TCAGCTAGGA	0.995
GGACCTGTGT	1.01
CCAATTCCAC	1.07
GTTTGCGCGA	1.02
CTGTCCTGTC	1.14
TGAGGCGAGT	1.01
TCAGCACGTT	0.988
GCTCCTTGAT	1.04
GGCGCAATTA	3.04
TTAGGGCGGC	1.01
AACGAGGTAG	0.949
TGCGAGCGAG	1.06
TCTGCAGGGG	1.21
